# In the supplement of paper PMC12217912:
# The list shows a part of the results. The full chains were built here from the parent and the listed change. Values near 0.05 are background.
# B1: TEV protease; numbered along this chain (parent)
# chain: MGESLFKGPRDYNPISSSICHLTNESDGHTTSLYGIGFGPFIITNKHLFRRNNGTLVVQSLHGVFKVKDTTTLQQHLVDGRDMIIIRMPKDFPPFPQKLKFREPQREERICLVTTNFQTKSMSSMVSDTSCTFPSGDGIFWKHWIQTKDGQCGSPLVSTRDGFIVGIHSASNFTNTNNYFTSVPKNFMELLTNQEAQQWVSGWRLNADSVLWGGHKVFMVKPEEPFQPVKEATQL
# Variants of: B1
# Test: raw area under fraction-flipped curve 0-4 h after induction (AUC4h, not background-subtracted), DNA-recorder readout of cleavage of the substrate (dimensionless); higher = more cleavage of the substrate by the protease variant
# Details: temperature: 34 °C; time window: 0-4 h after rhamnose induction
# 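Further: Bxb1 expression induced with 0.2% (w/v) L-rhamnose at OD600 near 0.5, cultures sampled hourly, flipped fraction per protease–substrate barcode pair counted by paired-end Illumina sequencing.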
Variant,area with substrate ENLYEQS,area with substrate ENLYGQS,area with substrate ENLYHQS,area with substrate ENLYIQS,area with substrate ENLYKQS,area with substrate ENLYMQS,area with substrate ENLYNQS,area with substrate ENLYPQS,area with substrate ENLYQQS,area with substrate ENLYRQS,area with substrate ENLYSQS,area with substrate ENLYTQS,area with substrate ENLYVQS,area with substrate ENLYWQS,area with substrate ENLYYQS,area with substrate ENLYLQS
P14K,0.0571,0.0635,0.0563,0.0946,0.0883,0.0881,0.0656,0.0631,0.0614,0.0517,0.0566,0.0619,0.109,0.0744,,
V183D,0.0578,,0.0419,0.052,0.0517,0.0481,0.0541,0.0535,,0.0559,,0.0312,,,0.0365,
K66M,0.0628,0.0542,0.0688,0.125,0.0692,,0.0572,0.0774,,,0.0795,0.081,,0.114,0.0558,
H29I,0.0895,0.0677,0.0668,0.12,0.0804,0.0838,0.0711,,,,,0.0886,,0.0717,,
K98F,0.0728,0.0581,0.084,0.124,,,0.0579,0.0599,,0.0538,,0.0694,0.0918,0.0802,0.0751,0.0719
T174S,,,,,,,,,,0.0607,0.0721,,,,0.0663,
T174K,,0.0711,,,0.0287,,0.0845,0.0637,,0.0427,,,,,0.0784,
I43H,0.0464,0.0524,0.0482,0.0521,0.0358,0.0359,0.0433,0.0425,0.0471,0.0369,0.0364,0.0475,0.0429,0.0382,,0.0455
N178A,,,0.0501,,,,,0.123,0.0821,,0.0693,,,0.102,,
T44N,0.0266,,0.0424,0.045,0.0337,0.0473,0.0378,0.0324,0.0465,0.0478,0.0486,0.0483,,,0.0431,
E3C,0.0743,,0.0607,,,0.101,0.0938,,,,,,0.163,,,
G28Q,0.0651,,0.0577,,,0.118,0.0589,0.0562,0.0542,0.0617,0.0596,,0.12,0.0825,,0.0736
S209D,0.0711,,0.0569,,,0.0716,0.0541,0.0688,,,0.0802,,,0.0681,,
Y179E,0.0677,0.0619,0.0271,0.064,,,0.0489,,,,0.0607,,,,,
L191P,0.0512,0.0635,0.0493,,0.0617,0.0377,0.0416,0.0564,,,,0.057,0.0599,,,
